{"source": "paper PMC9574860", "about": "“Chemical Toolkit for PARK7: Potent, Selective, and High-Throughput” (Journal of Medicinal Chemistry, 2022)", "note": "The campaign covered roughly 7,900 compounds. About 400 (5.1%) showed an effect of 50% or more. The list shows a part of the results."}
{"target": "Parkinson's disease protein 7 (PARK7/DJ1) (human, UniProt Q99497)", "sequence (Q99497 whole entry, looked up, the tested form may be a part)": "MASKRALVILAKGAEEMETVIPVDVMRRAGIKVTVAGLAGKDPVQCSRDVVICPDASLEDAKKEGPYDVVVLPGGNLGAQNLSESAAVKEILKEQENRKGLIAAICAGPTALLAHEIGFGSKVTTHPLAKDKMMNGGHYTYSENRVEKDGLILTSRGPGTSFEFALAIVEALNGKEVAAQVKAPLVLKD", "test": "primary screen, percent inhibition; read as competition with a fluorescent probe by fluorescence polarization; higher = more effect of the substance", "conditions": "100 µM", "summary_of_the_method": "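Fluorescence-polarization probe displacement (JYQ-107, 20 nM final, 2 h) after 2 h preincubation of PARK7 (0.2 μM final) with each fragment at 100 μM final. Read-out ex/em 480/520 nm; remaining activity derived from FP signal loss relative to reference controls.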", "units": {"Inhibition %": "%"}}
{"smiles": "C=CC(=O)Nc1ccc(=O)n(C)c1", "Inhibition %": 54.1}
{"smiles": "Cc1nn(C)c(Cl)c1C=CC(=O)N1CCNC(=O)C1", "Inhibition %": 7.91}
{"smiles": "C=CC(=O)NC1CCCN(c2ncccn2)C1", "note": "(stereo not drawn)", "Inhibition %": 4.88}
{"smiles": "C=CC(=O)NCc1ccc2c(n1)CCCC2", "Inhibition %": 6.7}
{"smiles": "Cc1cccc(C#N)c1B1OC(C)(C)C(C)(C)O1", "Inhibition %": -0.114}
{"smiles": "O=C(CCl)N1CCCC1=O", "Inhibition %": 79.2}
{"smiles": "Cl.NCc1cc(=O)[nH]c(S)n1", "Inhibition %": 27.5}
{"smiles": "CSCC(C)C(=O)N1CCN(c2ccc(C#N)nc2)CC1", "note": "(stereo not drawn)", "Inhibition %": 8.33}
{"smiles": "Cn1cc(NS(=O)(=O)c2ccc(S(=O)(=O)F)cc2)cn1", "Inhibition %": 33}
{"smiles": "CN1CCC2(CCCN2C(=O)c2cccc(S(=O)(=O)F)c2)CC1", "Inhibition %": 10.6}
{"smiles": "Cl.N#Cc1ncn(C2CCNCC2)n1", "Inhibition %": 5.75}
{"smiles": "Cc1nn(C)c(Cl)c1C=CC(=O)N1CCC(C(N)=O)CC1", "Inhibition %": 6.3}
{"smiles": "Cc1ncc(C=CC(=O)N2CCC(C)(C(=O)O)C2)s1", "note": "(stereo not drawn)", "Inhibition %": 6.2}
{"smiles": "CN(C)CC(C)(C)NS(=O)(=O)C=Cc1ccccc1", "Inhibition %": 12.8}
{"smiles": "O=C(O)c1ccc2c(c1)COB2O", "Inhibition %": 0.486}
{"smiles": "Cc1sc2nc(CCCCl)[nH]c(=O)c2c1C", "Inhibition %": 8.5}
{"smiles": "C=CC(=O)NCc1nc2cccnc2n1C", "Inhibition %": 10.7}
{"smiles": "OB(O)C1CCN(Cc2cc(-c3ccccn3)n[nH]2)C1", "note": "(stereo not drawn)", "Inhibition %": 29.8}
{"smiles": "N#Cc1cc(Sc2nccs2)ccn1", "Inhibition %": 3.81}
{"smiles": "C=CC(=O)Nc1ccc2c(c1)CCC2", "Inhibition %": 7.23}
{"smiles": "CC(O)c1ccc(SC2CCOC2=O)cc1", "note": "(stereo not drawn)", "Inhibition %": 7.33}
{"smiles": "Cc1cc(Cn2nc(-c3ccc(F)cc3)oc2=O)on1", "Inhibition %": 14.5}
{"smiles": "C=CC(=O)NCc1c(C)noc1C", "Inhibition %": 13.4}
{"smiles": "O=C(CCl)NC(=O)Nc1ccccc1", "Inhibition %": 28.5}
{"smiles": "CC(C)(C)c1ccccc1NC(=O)CCl", "Inhibition %": 11.7}
{"smiles": "O=C(N1CCN(c2ccccc2Cl)CC1)n1ccnc1", "Inhibition %": 11.7}
{"smiles": "O=C(CCl)Nc1cccc(Br)c1", "Inhibition %": 29.1}
{"smiles": "C=CC(=O)NCC1CCCC(F)(F)C1", "note": "(stereo not drawn)", "Inhibition %": 8.9}
{"smiles": "CC(C)Oc1ccc(Cl)c(C#N)n1", "Inhibition %": 4.72}
{"smiles": "C=CC(=O)N1CCC(C)(C(N)=O)C1", "note": "(stereo not drawn)", "Inhibition %": 6.84}
{"smiles": "C=CC(=O)N1c2ccccc2CCC1C", "note": "(stereo not drawn)", "Inhibition %": 6.12}
{"smiles": "O=C(CCl)Nc1ccc2c(c1)OCCO2", "Inhibition %": 55}
{"smiles": "Cc1nn(C)c2ncc(C=C(C#N)C(=O)NC(C)C)cc12", "Inhibition %": 7.67}
{"smiles": "O=C(CCl)NCCc1ccc(F)cc1", "Inhibition %": 26.6}
{"smiles": "Cc1ccc(NC(=O)C(C#N)=Cc2cn(C)cn2)c(C)c1", "Inhibition %": 10.3}
{"smiles": "O=C1CCC(=O)N1CCN1CCCc2cc(F)ccc21", "Inhibition %": 14.5}
{"smiles": "CCN(C(=O)Cn1cnc(C#N)n1)C1=CCCC1", "Inhibition %": 5.92}
{"smiles": "Cc1ccc2[nH]c(SC3CC(C)OC3=O)nc2c1", "note": "(stereo not drawn)", "Inhibition %": 17.4}
{"smiles": "NC(=O)c1ccsc1NC(=O)CCCl", "Inhibition %": 9.06}
{"smiles": "N#CC=C1NC(=O)c2ccccc2S1", "Inhibition %": 28.7}
{"smiles": "Cn1cc(C=C(C#N)C(=O)O)cn1", "Inhibition %": 5.91}
{"smiles": "C=CC(=O)N1CCN(CC(F)(F)F)C(C)C1", "note": "(stereo not drawn)", "Inhibition %": 11.9}
{"smiles": "C=CC(=O)N1CCC(=O)N(C)c2ccccc21", "Inhibition %": 1.46}
{"smiles": "C=CC(=O)N1CCc2c(ncn(CC)c2=O)C1", "Inhibition %": 28}
{"smiles": "Cc1csc(C2CN(C3CC(C)OC3=O)CCO2)n1", "note": "(stereo not drawn)", "Inhibition %": 6.49}
{"smiles": "CC(CCS(C)(=O)=O)NC(=O)c1cccnc1S", "note": "(stereo not drawn)", "Inhibition %": 4.52}
{"smiles": "CC1CCC2(CC1)CO2", "note": "(stereo not drawn)", "Inhibition %": 10.7}
{"smiles": "CC1N=C(S)N(C2CC2)C1=O", "note": "(stereo not drawn)", "Inhibition %": 3.34}
{"smiles": "CC(C)(C)n1nccc1B1OC(C)(C)C(C)(C)O1", "Inhibition %": 6.06}
{"smiles": "O=C(CCl)Nc1cccc(N2CCCC2=O)c1", "Inhibition %": 15.3}
{"smiles": "Cc1ccc(-c2nnc(S)[nH]c2=O)cc1", "Inhibition %": 7.42}
{"smiles": "N#CC(=Cc1ccsc1)C(=O)Nc1ccc(C(=O)O)cc1", "Inhibition %": 20.7}
{"smiles": "CS(=O)(=O)OC1CCOC(c2ccncc2)C1", "note": "(stereo not drawn)", "Inhibition %": 7.05}
{"smiles": "O=C(CCCl)Nc1ccc2c(c1)CCC2", "Inhibition %": 4.93}
{"smiles": "O=C(Oc1ccc2c(c1)OCO2)N1CCCCC1", "Inhibition %": 5.53}
{"smiles": "N#Cc1nc(NCCS(=O)c2ccccc2)ccc1Cl", "note": "(stereo not drawn)", "Inhibition %": 5.36}
{"smiles": "CCOc1cc(C)c(C)cc1S(=O)(=O)n1ccc(C)n1", "Inhibition %": 1.84}
{"smiles": "Cl.O=C(O)C1CCN(C(=O)C=Cc2ccccc2Cl)C1", "note": "(stereo not drawn)", "Inhibition %": -0.748}
{"smiles": "CC(C)Oc1cncc(B2OC(C)(C)C(C)(C)O2)c1", "Inhibition %": 7.07}
{"smiles": "C=CC(=O)N1c2ccc(Cl)cc2CC1C", "note": "(stereo not drawn)", "Inhibition %": 13.3}
{"smiles": "Cc1c(C=C2N=C3CCCCCN3C2=O)cc(C#N)n1C", "Inhibition %": 0.425}
{"smiles": "N#Cc1cccc(N2CCCC(F)C2)n1", "note": "(stereo not drawn)", "Inhibition %": 14.3}
{"smiles": "CC(C)(C)C(=O)NCc1ccc(C(=O)CCl)s1", "Inhibition %": 76.2}
